The campaign covered roughly 50,000 compounds. About 800 (1.6%) showed an effect of 50% or more. Some of the results follow.

The test addresses Bcl-2-like protein 10 (Homo sapiens) (UniProt Q9HD36). Description: TR3 peptide-Bcl-B binding displacers, biochemical primary FP assay, phenotype converters (AID 1240).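 Further: 0% = Bcl-B with tracer peptide and DMSO and 100% = tracer peptide lacking Bcl-B.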 Particulars: GST-Bcl-B / FITC-TR3 peptide fluorescence polarization; stronger effect = higher value; compound at 3.75 mg/L.
UniProt Q9HD36, sequence (Q9HD36 whole entry, looked up): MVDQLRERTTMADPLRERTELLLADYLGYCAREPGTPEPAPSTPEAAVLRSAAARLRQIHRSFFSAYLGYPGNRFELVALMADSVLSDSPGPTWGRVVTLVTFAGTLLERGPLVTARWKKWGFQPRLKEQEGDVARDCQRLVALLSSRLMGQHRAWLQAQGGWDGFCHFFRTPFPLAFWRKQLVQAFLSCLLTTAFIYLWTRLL
Consider `CCOC(=O)CSc1nc2c(c(=O)n1C1CCOC(C)(C)C1)C1(CCCCC1)Cc1ccccc1-2` (stereo unspecified), for which the displacement is -1.1%.

For `CC(C)CCNC(=O)C(=O)NCc1ccc(Cl)cc1`, the displacement worked out at 1.4%.

As for `Cc1ccc(C2C(C#N)=C(N)Oc3c2ccc2cccnc32)cc1` (stereo unspecified), the displacement is -16.1%.

As for `COc1ccc(OC)c(/C=C2\SC(=N)N(c3ccc(F)cc3)C2=O)c1`, the displacement is -4.7%.

Take `O=C(Cc1n[nH]c(=O)c2ccccc12)NCCCN1CCCCCC1`: the displacement was -1.7%.

In the case of `COc1ccccc1NC(=O)/C(=C\c1ccc(Br)cc1)NC(=O)c1ccccc1OC`, the displacement is -4%.

`Cc1sc(NC(=O)c2sc3ccccc3c2Cl)c(C#N)c1C`: the displacement amounted to 1%.

`COc1ccc(OC)c(NC(=S)NC(NC(=O)Cc2cccc3ccccc23)C(Cl)(Cl)Cl)c1` (stereo unspecified): the displacement was found to be 12.7%.

For `CC(C)Oc1ccc(/C=N/N=C/c2ccc(OC(C)C)cc2)cc1`, the displacement was 3.1%.

Regarding `COc1ccc(C(=O)Nc2ccc3c4c(cccc24)CC3)cc1Br`, the displacement was -4.5%.

For the compound `COc1ccccc1N1CCN(/N=C\c2ccncc2)CC1`, the displacement is -10.3%.

In the case of `Oc1c(Br)cc(Cl)cc1C=Nc1cccc2nsnc12`, the displacement turned out to be 10.5%.

In the case of `Cc1cc(OCC(=O)NNC(=O)c2ccccc2C)ccc1Br`, the displacement is -12.6%.

As to `O=[N+]([O-])c1ccc(NCCCNS(=O)(=O)c2ccccc2)c(Cl)c1`, the displacement is -6.2%.

Consider `COc1ccccc1CNC1C2CC3CC(C2)CC1C3` (stereo unspecified), for which the displacement was 4.8%.

Consider `CC1=C(C(=O)OC(C)C)C(c2ccc(Br)cc2)C2=C(CCCC2=O)N1` (stereo unspecified), for which the displacement came to 6.3%.

Turning to `Cc1ccc(-c2ccccc2)n1-c1cccc(C(=O)O)c1`, the displacement worked out at 1.2%.

With `COc1ccccc1NC(=O)CN(c1cccc([N+](=O)[O-])c1)S(=O)(=O)c1ccccc1`, the displacement is 8.5%.

As to `CN(c1ccc(C(=O)Nc2ccc3ccccc3c2)cc1)S(=O)(=O)c1ccccc1`, the displacement stood at 9.8%.

As to `Cc1cccc(NC(=O)C(=O)NCCCOC(C)C)c1`, the displacement is 13.1%.

As for `COc1ccc2c(c1OC)C(=O)N(c1cccc(C)c1)C2=O`, the displacement was -14.8%.

Regarding `CC(=O)NC1=NC(=O)/C(=C\c2ccc(N(C)C)c(Br)c2)S1`, the displacement is -39.2%.

`CC(Oc1ccccc1)C(=O)N1CCN(c2ccccc2)CC1` (stereo unspecified): the displacement worked out at 21.2%.

For `O=C(CSc1nnc(-c2ccccc2)c(-c2ccccc2)n1)N1CCCCC1`, the displacement is -4.4%.

Turning to `CCOc1ccc(-n2c(-c3ccccc3)nc3c(cnn3-c3ccccc3)c2=O)cc1`, the displacement was 8.6%.

Take `COc1ccc(/C=C/C(=O)Nc2cccc([N+](=O)[O-])c2)cc1Br`: the displacement was 6.1%.

For `COc1cc(C(=O)Nc2ccc(Cl)cn2)cc(OC)c1OC`, the displacement was determined as 10.7%.

For `COc1cccc(N(CC(=O)Nc2ccccc2Br)S(=O)(=O)c2ccccc2)c1`, the displacement amounted to 4.6%.

Take `CC(C)(C)C1CCc2c(sc3nc(SCC(N)=O)nc(N)c23)C1` (stereo unspecified): the displacement stood at 3.5%.

Turning to `COc1ccc(OC)c(NC(=S)NC(NC(=O)c2ccc(Cl)cc2Cl)C(Cl)(Cl)Cl)c1` (stereo unspecified), the displacement is -4.5%.

In the case of `COc1ccc(C(N)=O)cc1NC(=O)c1cccnc1`, the displacement amounted to 14.4%.

Regarding `Clc1ccc(-n2ncnc2-c2ccc(Cl)cc2Cl)cc1`, the displacement was 8.9%.

Consider `CC(C)(C)c1ccc2c(c1)C(=O)NC2=O`, for which the displacement was -4.8%.

In the case of `CCOC(=O)c1cc(CC)sc1NC(=O)c1cc([N+](=O)[O-])ccc1N1CCN(CC)CC1`, the displacement was -2.3%.

As to `CC12c3ccccc3C(C)(c3ccccc31)C1C(=O)N(c3cccc(C(=O)O)c3)C(=O)C12` (stereo unspecified), the displacement was determined as 12.4%.

Consider `COCCOC(=O)c1ccc(NC(=O)COc2cccc(C)c2C)cc1`, for which the displacement stood at 1.9%.

For the compound `Cc1ccnc(NS(=O)(=O)c2ccc(N3C(=O)c4ccc(C(=O)O)cc4C3=O)cc2)n1`, the displacement is 1.4%.

With `CC(=O)Nc1c2ccc([N+](=O)[O-])cc2n2c(C)nc3ccc(Cl)cc3c12`, the displacement was determined as 1.9%.

Take `C/C(=N\NS(=O)(=O)c1ccc(C)cc1)c1cccs1`: the displacement worked out at 4.9%.

With `Nc1ccccc1C(=O)N=Nc1c(O)[nH]c2ccccc12`, the displacement is 4.4%.

Consider `CCN(CC)CCOC(=O)c1ccc(O)c(OC)c1`, for which the displacement is 3.8%.

Turning to `O=S(=O)(c1ccccc1)N1CCN(Cc2ccccc2C(F)(F)F)CC1`, the displacement was -1.5%.

Consider `Cc1ccc(N2C(=O)NC(=O)/C(=C\c3ccc(Br)s3)C2=O)cc1`, for which the displacement was -33.3%.

As for `COc1ccc(-c2occ(C(=O)O)c2C(=O)O)cc1`, the displacement is 0.2%.

As for `CCc1ccc(C2C(C(=O)OC)=C(C)NC3=C2C(=O)CC(C)(C)C3)s1` (stereo unspecified), the displacement is 5.2%.

For `C=CCN1C(=O)/C(=C\c2ccc(OS(=O)(=O)c3ccccc3)c(OC)c2)SC1=S`, the displacement was determined as 3.5%.

As to `COc1ccc(C(=O)CSc2nc3c(c(-c4ccc(C)o4)c2C#N)CCCC3)cc1`, the displacement turned out to be 7.6%.

On to `CCSCCOC(=O)C1=C(C)NC2=C(C(=O)CCC2)C1c1ccccc1OC(C)C` (stereo unspecified), for which the displacement came to 2.9%.

With `O=C(N=Nc1c(O)n(CN2CCCC2)c2ccccc12)c1ccccc1Br`, the displacement was -6.3%.

`CNC(=O)CN(c1ccc(OC)cc1)S(=O)(=O)c1ccc(C)cc1`: the displacement was determined as 7.8%.

`O=C1N=c2ccc(Br)cc2=C1c1sc(=O)n(-c2cccc(Cl)c2)c1S`: the displacement came to 2.1%.

Regarding `O=C1C2ON(c3ccccc3)C(c3ccco3)C2C(=O)N1c1ccc(N2CCOCC2)cc1` (stereo unspecified), the displacement is 2.3%.

For the compound `O=C(Nc1ccc(NC(=O)c2ccc(-c3cccc(Cl)c3)o2)cc1)c1ccco1`, the displacement was determined as 12.1%.

Regarding `CCN1C(=O)/C(=C\c2cc(Cl)c(OCc3ccccc3)c(OC)c2)SC1=S`, the displacement was determined as 7.3%.

In the case of `CC(=O)N1N=C(c2ccc(Br)cc2)CC1c1cccc([N+](=O)[O-])c1` (stereo unspecified), the displacement came to 9.1%.

For `O=C(N/N=C/c1ccccc1O)c1cc(C2CC2)[nH]n1`, the displacement is -21.2%.

On to `Cc1nc(C)c(C(=O)NNC(=O)c2cccc([N+](=O)[O-])c2C(=O)O)s1`, for which the displacement came to 10%.

For the compound `COC(=O)c1ccc(NC(=O)c2cncc(Br)c2)cc1`, the displacement turned out to be 11.1%.

`COc1ccc(C(=O)CC2(O)C(=O)Nc3ccc(Br)cc32)cc1` (stereo unspecified): the displacement amounted to 2.7%.

Take `NC(=O)c1ccc(NC(=S)Nc2ccc(F)cc2)cc1`: the displacement was -8.2%.

`Cc1ccc(OCCOc2cccc(C=O)c2)cc1`: the displacement was 1.6%.

As for `CC1(C)Cc2[nH]c(=O)c(C#N)cc2CO1`, the displacement amounted to 2.2%.

As for `Cc1cccc(OCC(=O)Nc2cc([N+](=O)[O-])ccc2Cl)c1`, the displacement was 4.8%.

As for `Fc1ccccc1Cn1nnc(-c2ccccc2Cl)n1`, the displacement was -12.5%.

Regarding `Cc1cccn(C(=O)c2ccc3c(c2)OCO3)c1=NC(=O)c1ccc2c(c1)OCO2`, the displacement is -12%.

On to `Cc1ccc(N(CN2C(=O)c3ccccc3C2=O)C(=O)c2ccccc2)cc1`, for which the displacement was -3.9%.

On to `CCOC(=O)Nc1cccc(Nc2ccccc2)c1`, for which the displacement was -0.4%.

Turning to `CCOC(=O)C(CC)C(C)=NNC(=O)c1ccc([N+](=O)[O-])cc1` (stereo unspecified), the displacement was 4.5%.

Take `CCC(O)(C#CCN1CCCCC1)CC`: the displacement was -5.3%.

As to `Cc1[nH]c2ccccc2c1C=Nc1ccccc1C(=O)Nc1ccccc1`, the displacement was found to be 0.3%.

As for `CCOc1ccc(N2C(=O)/C(=C/c3ccc(C(=O)O)cc3)SC2=S)cc1`, the displacement was -1.6%.

For `CC1=C(C(=O)Nc2ccc(Cl)cc2)Sc2ccccc2N1`, the displacement turned out to be 27.8%.

In the case of `C=CCNC(=S)NNC(=O)CCn1c2ccccc2c2ccccc21`, the displacement was determined as 1.9%.

Turning to `CC1CCN(CCCCOc2ccccc2Br)CC1`, the displacement is -6%.

On to `CC1(C)OC2OC(COCc3ccccc3)C3OC(C)(C)OC3C2O1` (stereo unspecified), for which the displacement worked out at 15.4%.

Consider `CN(C)c1ccc(NS(=O)(=O)c2ccc(Cl)cc2)cc1`, for which the displacement came to 10.5%.

For `COCCNC(=O)COc1ccccc1C`, the displacement was -4.3%.

In the case of `Cc1onc(-c2ccccc2)c1C(=O)NCc1ccc(Cl)c(Cl)c1`, the displacement is -33.4%.

Turning to `CC(Cc1ccccc1)C(=O)Nc1ccc(Cl)cc1` (stereo unspecified), the displacement came out at 6.5%.

Regarding `CCOC(=O)c1cccc(NC(=O)/C=C/c2ccccc2Cl)c1`, the displacement was 15.5%.

With `COc1cc(C)cc2oc(=O)cc(C)c12`, the displacement was -10%.

In the case of `C=C(C)COc1ccc2c(C)cc(=O)oc2c1`, the displacement is -22.4%.

As for `COc1ccc(-c2nc(-c3cccnc3)no2)cc1`, the displacement was -8%.

Regarding `O=[N+]([O-])c1cccc(-c2csc(N/N=C\c3ccccc3O)n2)c1`, the displacement was -15.3%.

For the compound `O=C(Nc1ccccc1C(F)(F)F)c1ccc(Cl)cc1Cl`, the displacement was -12.7%.

For `Cc1ccc(-n2ncnc2-c2ccc(Br)cc2)cc1Cl`, the displacement turned out to be 2.2%.

In the case of `CCCC(=O)Nc1ccc(NC(=O)C(C)(c2ccccc2)c2ccccc2)cc1`, the displacement was 3.4%.

For `CC1CCN(C(=S)Nc2ccc(F)cc2)CC1`, the displacement was -0.2%.

With `O=C(O)c1cccc(NC(=O)c2cccc(F)c2)c1`, the displacement is -1.4%.

Take `COC(=O)c1ccc(N(S(=O)(=O)c2ccc(NC(C)=O)cc2)S(=O)(=O)c2ccc(NC(C)=O)cc2)cc1`: the displacement amounted to 10.9%.

As for `Cc1cc(OCC(=O)NC2CC(C)(C)NC(C)(C)C2)ccc1Br`, the displacement is 27.2%.

With `O=C(COc1ccc([N+](=O)[O-])cc1)Nc1ccc2nn(-c3ccc(F)cc3)nc2c1`, the displacement turned out to be 9%.

As to `CCCCOc1ccc2c3c(c(=O)oc2c1)CCCC3`, the displacement was -7.7%.

With `CSc1nc2c(c(=O)n1C)C(C)(C)Cc1ccccc1-2`, the displacement is -3.3%.

Take `O=C(COc1ccc(Cl)cc1)Nc1ccc(N2CCCCC2)c(Cl)c1`: the displacement is -5.2%.

As for `O=S(=O)(c1ccc(Cl)cc1)N1CCN(Cc2ccccn2)CC1`, the displacement is -6%.

Regarding `COc1ccc(C2C(C(=O)/C=C/c3ccccc3)=C(O)C(=O)N2CCCCCC(=O)O)c(OC)c1` (stereo unspecified), the displacement is -5.2%.

Take `CCOc1ccc(C2C(C(=O)OC)=CNC=C2C(=O)OC)cc1`: the displacement was 44.5%.

Turning to `COC(=O)c1ccc2c(c1)-c1ccc(C(=O)OC)c3cccc-2c13`, the displacement turned out to be 11.6%.

Turning to `O=C1c2ccccc2-c2nc3ccc([N+](=O)[O-])cc3nc21`, the displacement was -0.9%.

Turning to `CN(C)CCNC(=S)NC(=O)C12CC3CC(CC(C3)C1)C2`, the displacement was -9.3%.

Consider `FC(F)(F)c1ccccc1C=NN1CCN(Cc2ccccc2Cl)CC1`, for which the displacement was -10.8%.

In the case of `Cc1cc(C(=O)Nc2c[nH]c(=O)[nH]c2=O)ccc1[N+](=O)[O-]`, the displacement is 8.2%.

Turning to `Nc1nnc(SCC(=O)NCCOc2ccccc2)s1`, the displacement is -0.6%.

Consider `CCOc1ccc(N(CC(=O)NCCSCc2ccc(C)cc2)S(C)(=O)=O)cc1`, for which the displacement is 4.1%.

`CC(C)(C)C(=O)Nc1nnc(-c2ccccc2)s1`: the displacement was -0.9%.

On to `O=C(O)c1nn(-c2ccccc2)c(=O)c2ccccc12`, for which the displacement is -8.4%.

With `COc1ccc(C2/C(=C(\O)c3ccccc3)C(=O)C(=O)N2CCCCCC(=O)O)cc1OC` (stereo unspecified), the displacement worked out at 0.9%.

Consider `Cc1cc(C)n2c(SCc3cccc(Oc4ccccc4)c3)nnc2n1`, for which the displacement is -11.2%.

For `CC1=C(C(=O)Nc2ccccc2)C(c2ccc([N+](=O)[O-])cc2)NC(=S)N1` (stereo unspecified), the displacement was determined as 2.7%.

On to `CCSCCOC(=O)C1=C(C)N(C)C(=O)NC1c1cc(OC)ccc1OC` (stereo unspecified), for which the displacement is -8%.

These data come from PubChem BioAssay AID1240 (Sanford-Burnham Center for Chemical Genomics, 2008).
